# Screen size: about 360,000 compounds; about 7,500 (2.1%) were called active. Inconclusive means that the source gave no clear call. Such entries were picked first, then a sample of the others. The call rests on the fitted dose curve; in most records, active means well fitted cell-killing curve with a large enough effect; inconclusive means small, poorly fitted or top-dose-only effect, or effect the other way, or another doubt; inactive means no such curve, though single readings can be large or run the other way. No potency is given beside an inconclusive call; the fits are too rough.
# Assay: qHTS for induction of synthetic lethality in tumor cells producing 2HG: qHTS for the HT-1080-IDH1KD cell line;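 on activity, negative = toxicity: 0% = DMSO wells and -100% = cell-free medium wells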
# Conditions: HT-1080 IDH1 knockdown viability, ATP luminescence, 48 h; activity, negative = toxicity: at 46.1 µM (top of the series) unless noted
# Method in brief: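 Luminescent ATP read-out (CellTiter-Glo, 10 min at room temperature) after 48 h compound exposure at 37 °C gave viability of IDH1-knockdown HT-1080 cells. Activity was normalised to DMSO and cell-free wells, then fitted as concentration-response curves.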
# Potency means the concentration at half of the fitted maximal effect; tags describe the fitted curve by direction and shape.
SMILES,Potency,"activity, negative = toxicity"
CCN(CC)CCCC(C)Nc1nccc2c(Cl)cccc12 (stereo unspecified),"inconclusive [cytotoxic, single point]",–
CCOc1ccc(NCc2cccn2-c2nnc(N3CCC(C(=O)NCCCN4C(C)CCCC4C)CC3)s2)cc1 (stereo unspecified),"inconclusive [cytotoxic, single point]",–
COc1ccccc1CCC(=O)Nc1nc2ccccc2[nH]1,"inconclusive [cytotoxic, single point]",–
COc1ccc(S(=O)(=O)Nc2ccc(F)c(F)c2)cc1Cl,"inconclusive [cytotoxic, partial curve, poor fit]",–
CCN(CC)CCNC(=O)c1cc([N+](=O)[O-])c(N(C)C)cc1OC,"inconclusive [rising, single point]",–
CN(Cc1ccccc1)S(=O)(=O)c1ccc(Cl)c(C(=O)NCCCN2CCOCC2)c1,–,inactive: 7.91%
Cn1c2c(c(=O)c3ccccc31)CCCC2,–,inactive: 18.3%
CC(C)C[C@H]1CN(CCCC[C@H]2CNC(=O)C(=O)N2Cc2ccccc2)C(=O)C(=O)N1Cc1ccccc1,–,inactive: 12.9%
CC1CCc2[nH]c3ccc(C(=O)N(C)CC(=O)Nc4ccccc4Br)cc3c2C1 (stereo unspecified),"inconclusive [cytotoxic, single point]",–
O=C(Nc1ccc2nc3n(c(=O)c2c1)CCCCC3)c1cc([N+](=O)[O-])ccc1F,"inconclusive [cytotoxic, single point]",–
COc1cccc(/C=N/Nc2nnc(C)n2N)c1O,active: 20.6 µM,–
CCOC(=O)c1ccccc1NC(=O)COC(=O)C1CCCC1,"inconclusive [rising, single point]",–
O=C(NC1CCCC1)C(c1cccnc1)N(Cc1ccccc1)C(=O)c1csnn1 (stereo unspecified),–,inactive: 0%
O=C(CSc1nc2ccccc2c(=O)[nH]1)Nc1ccccc1C(F)(F)F,–,inactive: -7.11%
Cc1cccc(OCCCOc2cccc3cccnc23)c1C,"inconclusive [cytotoxic, single point]",–
O=C1NC(=O)/C(=C\c2ccccc2Oc2ccc(F)c(F)c2)S1,"inconclusive [cytotoxic, single point]",–
CC(=O)Nc1ccc(S(=O)(=O)Nc2ccc3nc(C)sc3c2)cc1,"inconclusive [cytotoxic, full curve]",–
CCOC(=O)C1=C(C)NC(SC)=C(C#N)C1CC(C)C (stereo unspecified),active: 2.59 µM,–
O=C(Nc1ncc([N+](=O)[O-])s1)c1ccccc1Br,"inconclusive [cytotoxic, single point]",–
CCN1CCCC1CNC(=O)c1cc2c(-c3cccc(OC)c3)nn(C)c2s1 (stereo unspecified),"inconclusive [cytotoxic, single point]",–
OC1(c2ccc(Cl)cc2)CCN(Cc2cn[nH]c2-c2ccccc2)CC1,"inconclusive [cytotoxic, partial curve, poor fit]",–
NS(=O)(=O)c1ccc(NCc2cc(Cl)ccc2OCc2ccc(F)cc2)cc1,"inconclusive [cytotoxic, single point]",–
Cc1cnc(NC(=O)NCC2CCCC(CNC(=O)Nc3ncc(C)s3)C2)s1 (stereo unspecified),"inconclusive [cytotoxic, single point]",–

SMILES,Potency,"activity, negative = toxicity"
O=C(NNc1nc(-c2ccc(Br)cc2)cs1)c1ccco1,"inconclusive [cytotoxic, single point]",–
Cc1cccc(Nc2nc(N)nc(N)c2N=O)c1,–,inactive: -15.7%
Cc1cccc(C(=O)N/N=C2\CS(=O)(=O)N(C)c3ccsc32)c1,"inconclusive [cytotoxic, partial curve]",–
Cn1c2c(c(=O)n3ncnc13)CCCC2,–,inactive: 8.6%
O=C(C=C(O)c1ccc(Cl)cc1)C(=O)NNC(=O)C(O)(c1ccccc1)c1ccccc1,–,inactive: -11.7%
CCOC(=O)C1=C(CN2CCN(c3ccc(F)cc3)CC2)NC(=O)NC1c1cccs1 (stereo unspecified),"inconclusive [cytotoxic, single point]",–
COc1ccc(OCC(=O)Nc2ccc3c(c2)nc(CCN2CCN(c4ccccn4)CC2)n3C)cc1,"inconclusive [cytotoxic, partial curve]",–
O=C(COC(=O)C1CCN(c2ccc(C(F)(F)F)cn2)CC1)Nc1ccc(F)cc1[N+](=O)[O-],–,inactive: 6.59%
CC/C(C)=N/Nc1nc(-c2cc3cccc(OC)c3oc2=O)cs1,"inconclusive [cytotoxic, single point]",–
Clc1cccc(Cc2c(C3CCCCC3)nc3ccc(Br)cn23)c1,"inconclusive [cytotoxic, single point]",–
CCC(=O)N1CCc2cc(S(=O)(=O)N3CCN(c4cc(C)ccc4C)CC3)ccc21,–,inactive: 5.22%
COC(=O)C1C/C(=N\NS(=O)(=O)c2ccc(C)cc2)c2ccsc2C1 (stereo unspecified),–,inactive: 0.775%
N#Cc1ccccc1S(=O)(=O)N1CCN(Cc2cc3c(cc2Br)OCCO3)CC1,–,inactive: -18.2%
O=C(C[C@@H]1C/C=C\C[C@H](NC(=O)OCC2c3ccccc3-c3ccccc32)C(=O)OC[C@H]2CCCN2C1=O)N[C@@H](CO)Cc1ccccc1,–,inactive: -0.88%
O=[N+]([O-])c1cc2c(cc1/C=N/Nc1nc(Nc3ccccc3)nc(N3CCCCC3)n1)OCO2,"inconclusive [cytotoxic, partial curve]",–
O=C1CN(C(=O)NCC(=O)N2CCCC2)c2ccccc2N1,–,inactive: 0%
COc1ccc(C(=O)NCCCCNC(=O)c2ccc(OC)c(OC)c2)cc1OC,–,inactive: -0.938%
CC(=O)C[C@H]1c2cc(F)ccc2S(=O)(=O)N1c1ccc(N(C)C)cc1,–,inactive: -2.85%
O=S(=O)(c1ccc2nc(Nc3ccccc3)ccc2c1)N1CCCCC1,active: 25.9 µM,–
COc1cc(NC(=O)CSc2nnc3c4ccccc4n(C)c3n2)cc(OC)c1OC,–,inactive: -11.6%
Cc1nn(-c2ccccc2)c(Cl)c1CN(C(=O)CCl)c1cccc2ccccc12,active: 5.17 µM,–
CN1CCCC1CCNc1ccc2sc3ccccc3c(=O)c2c1 (stereo unspecified),"inconclusive [cytotoxic, single point]",–
COc1ccccc1-c1nnc(SCC(=O)NCc2c(C)c(Cl)cc(C(C)C)c2O)o1,active: 15.8 µM,–
